These results are taken from PubChem BioAssay AID488969 (Vanderbilt High Throughput Screening Facility, 2010).

In all, about 110,000 compounds were measured (“z-score”: median about -0.1, highest 2% from about 2 on). The list shows a part of the results.

In the experiment the target is Metabotropic glutamate receptor 8 (Rattus norvegicus) (UniProt P70579). Nature of the experiment: rat mGluR8 modulators via GIRK flux, primary screen, cell-based, thallium flux, HTS (AID 488969). The settings on record: HEK293 rat mGluR8, GIRK (G protein-gated inwardly rectifying potassium channel) thallium flux, FluoZin2; at 10 µM; stronger effect = higher value; submaximal glutamate (EC20) added with thallium.
UniProt P70579, sequence (P70579 whole entry, looked up): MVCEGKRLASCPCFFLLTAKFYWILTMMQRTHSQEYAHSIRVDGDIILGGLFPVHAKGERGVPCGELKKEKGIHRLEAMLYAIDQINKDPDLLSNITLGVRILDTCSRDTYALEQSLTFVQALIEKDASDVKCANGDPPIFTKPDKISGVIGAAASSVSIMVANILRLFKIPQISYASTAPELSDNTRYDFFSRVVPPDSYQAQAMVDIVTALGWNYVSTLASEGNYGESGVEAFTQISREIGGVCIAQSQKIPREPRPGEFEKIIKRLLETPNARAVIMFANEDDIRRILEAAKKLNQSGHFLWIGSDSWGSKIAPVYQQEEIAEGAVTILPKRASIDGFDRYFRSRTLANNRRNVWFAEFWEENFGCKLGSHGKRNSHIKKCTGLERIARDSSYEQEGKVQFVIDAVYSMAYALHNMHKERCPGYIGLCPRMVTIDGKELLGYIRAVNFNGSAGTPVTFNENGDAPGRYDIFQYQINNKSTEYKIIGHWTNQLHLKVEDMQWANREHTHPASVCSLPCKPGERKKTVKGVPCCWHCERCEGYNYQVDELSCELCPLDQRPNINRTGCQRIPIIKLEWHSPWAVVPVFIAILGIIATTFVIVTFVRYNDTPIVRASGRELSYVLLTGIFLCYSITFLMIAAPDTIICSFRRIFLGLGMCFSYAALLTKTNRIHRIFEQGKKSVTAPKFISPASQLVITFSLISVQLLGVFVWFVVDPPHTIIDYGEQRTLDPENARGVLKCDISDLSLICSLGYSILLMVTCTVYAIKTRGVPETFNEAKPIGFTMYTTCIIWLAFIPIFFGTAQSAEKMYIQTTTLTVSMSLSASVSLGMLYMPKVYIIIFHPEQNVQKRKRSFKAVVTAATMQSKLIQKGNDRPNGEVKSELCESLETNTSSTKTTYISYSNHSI
As to `COc1ccccc1NC(=O)c1oc2ccccc2c1NC(=O)c1cc(OC)c(OC)c(OC)c1`, the z-score was -0.0644.

On to `O=C(COC(=O)C1(c2ccccc2F)CCCC1)N1CCN(C(=O)c2ccco2)CC1`, for which the z-score was -0.0374. The result for `C/C(=C\C(=O)Nc1nccs1)c1ccccc1` reads -0.25; that for `COC(=O)c1sccc1NC(=O)c1ccc(C)s1`, -0.334. Consider `COC(=O)c1ccc2nc(C(F)(F)F)[nH]c2c1`, for which the z-score stood at 0.00654. Compound `CC(C)CC(=O)N1CCN(C(=O)c2cccc(F)c2)CC1` registered a z-score of -0.332. For `C/C(Cc1ccccc1)=N\NC(=O)CCCCCC(=O)N/N=C(\C)Cc1ccccc1` the value was -0.0163; for `COc1ccc(Oc2c(C)oc3cc(OC(=O)N4CCOCC4)ccc3c2=O)cc1`, 0.127. In turn, `CN1CCN(C(=S)NC(=O)/C=C/c2ccccc2)CC1` had a z-score of 0.401. The result for `CCN(CC)C(=O)n1cnc(-c2ccccc2)c1-c1ccccc1` reads -0.325; that for `CCn1c(NC(=O)c2cccc(Cn3cc(Cl)cn3)c2)nc2ccccc21`, 0.18. For `O=C(COC(=O)Cc1ccc(S(=O)(=O)N2CCOCC2)s1)NCc1ccc(Cl)cc1` the value was -0.331; for `Cc1ccc(OCCOc2ccc(Cl)cc2Cl)c([N+](=O)[O-])n1`, -0.167; for `Cc1ccc(OCC(=O)N2CCCCC2)c(Br)c1`, 0.0809.

Regarding `CC1(C)CC(=O)c2cnc(N3CCc4ccccc4C3)nc2C1`, the z-score is 0.63.

Regarding `Cn1c(=O)n(C)c2cc(NS(C)(=O)=O)ccc21`, the z-score was 0.0288.

The compound `CCCn1c(N)c(C(=S)NC(=O)C2CC2)c(=O)n(C)c1=O` registered a z-score of 0.941. Take `O=C1C(=O)N(CCN2CCCCC2)c2ccccc21`: the z-score was found to be 0.0049. The result for `CCC(=O)Nc1ccc2c(c1)ncn2-c1ccccc1` reads 0.261; that for `c1csc(CNCCN2CCOCC2)c1`, -0.0197. Turning to `O=C(Nc1nncs1)c1c(F)c(F)c(F)c(F)c1F`, the z-score came to 0.819. In turn, `Cc1nnc2sc(SCc3ccc(Cl)cc3)nn2c1=O` came in with a z-score of -0.0253. In the case of `CCN(CC)CCNC(=O)C12CC3CC(C)(CC(C)(C3)C1)C2`, the z-score was determined as 0.873.

Take `COc1ccc(-n2c(C)n[nH]c2=O)cc1`: the z-score was 1.02. `O=S(=O)(c1ccc2c(c1)OCCO2)N1CCC(n2nnc3cc(F)ccc32)CC1` yielded a z-score of -0.35. The compound `O=C(c1cccc([N+](=O)[O-])c1)N1CCN(c2cccc(Cl)c2)CC1` came in with a z-score of -0.124. For `COc1ccc2nc(NC(=O)CCn3cccc3)sc2c1` the value was -0.0546; for `O=C(Nc1cccc(S(=O)(=O)N2CCCCC2)c1)c1c2c(nc3ccccc13)CCN(Cc1ccccc1)C2`, 0.0436; for `CCCCS(=O)CC(CS(=O)CCCC)OC(=O)c1ccccc1` (stereo unspecified), 0.895. The result for `O=C(O)c1c(-c2ccccc2)c2oc3ccccc3c2[nH]c1=O` reads -0.0833; that for `Cc1ccc(-n2ncc3c(=O)n(-c4ccc(C)c(C)c4)c(-c4ccco4)nc32)cc1`, -0.219. For `Cc1ccc(NNC(=O)C(=O)N2CCCCC2)cc1` the value was -0.317; for `CCCCCCCCNC(=O)C(CCC(=O)OCc1ccccc1)NC(C)=O` (stereo unspecified), -0.362.

In turn, `COc1ccc(C(C(=O)NC2CCCCC2)N(Cc2cccs2)C(=O)Cc2c[nH]c3ccccc23)cc1` (stereo unspecified) showed a z-score of -0.128. For `O=C(CSc1nccc(=O)[nH]1)N1CCCc2ccccc21` the value was -1.4. For `Cc1c(C(=O)Nc2cccc(-c3nnc4n3CCCCC4)c2)oc2ccccc12` the value was 0.703; for `CN(c1ccccc1)c1nc2ccsc2c(=O)s1`, -0.971; for `CN(Cc1ccc(O)cc1)C1CCCCC1`, 0.708. Consider `S=C(c1ccc[nH]1)N1CCOCC1`, for which the z-score turned out to be 0.291. As for `CCCCCCC(=O)Nc1ccc(C(=O)N2CCCC2)cc1`, the z-score was -0.187. The result for `O=S(=O)(c1ccc2ccccc2c1)N(CC(O)COCc1ccco1)c1ccccc1` (stereo unspecified) reads -0.633; that for `CCSc1nc2c(c(=O)[nH]c(=O)n2C)n1CC(O)COc1ccccc1C` (stereo unspecified), -0.0318; that for `COc1cc(C(=O)O)cc(OC)c1OCc1cc(C(=O)O)oc1C`, 0.311.

In turn, `CC(=C1C(=O)c2ccccc2C1=O)N1CCN(C/C=C/c2ccccc2)CC1` returned a z-score of 2.04. The result for `COc1ccc(CC(=O)Nc2cccc(-c3csc(C)n3)c2)cc1` reads 1.88. `Cc1cc(C(=O)CN2C(=O)NC(C)(c3cccc(Br)c3)C2=O)c(C)n1Cc1ccco1` (stereo unspecified) had a z-score of 0.276. The result for `CN=C1SC(CC(=O)Nc2cccc(C(F)(F)F)c2)C(=O)N1C` (stereo unspecified) reads 0.056. For `Cc1cc(-c2n[nH]c(=S)n2/N=C/C(Br)=C/c2ccccc2)n[nH]1` the value was -0.283; for `CCOC(=O)CNC(=O)c1cc(C)oc1C`, 0.701; for `Fc1ccc(Cn2c(SCc3ccc(F)c(C(F)(F)F)c3)nnc2C(F)(F)F)cc1`, -0.265. The result for `Cn1cccc1-c1nc2ccc(NC(=O)c3ccccc3)cc2[nH]1` reads -0.561. `CCOC(=O)C(NC(=O)Nc1ccc(F)cc1F)(Oc1ccccc1)C(F)(F)F` (stereo unspecified) yielded a z-score of -2.64.

`CC(=O)c1c(C(C)=O)c(C)n(-c2nc(-c3ccc(C)c(C)c3)c(C)s2)c1C` had a z-score of -0.531. For `Cc1cc(Cl)c(S(=O)(=O)NCc2ccncc2)cc1OCC(N)=O` the value was 0.0102. Regarding `COCCCNC(=S)NNC(=S)Nc1ccc(F)cc1F`, the z-score worked out at 0.0456. For `Cc1nn(-c2ccccc2)c2c1C(c1c(C)[nH]c(C#N)c1C)C(C#N)=C(N)O2` (stereo unspecified) the value was -0.228; for `O=C(Nc1nncs1)c1ccc(S(=O)(=O)c2ccccc2)cc1`, -0.535. For `COc1cc2cc(CN(Cc3nnnn3Cc3ccco3)C3CCCCC3)c(=O)[nH]c2cc1OC` the value was -2.72. As for `CCc1ccccc1N(CC)C(=O)c1cn(C)c(=O)c2cc(OC)c(OC)cc12`, the z-score was -0.534. The result for `O=C(c1ccco1)N1CCN(C(=O)N2CCOCC2)CC1` reads 0.0701; that for `O=C1c2ccccc2C(=O)C12OC2c1ccc(Cl)cc1Cl` (stereo unspecified), -2.03.

`Cc1ccc(/C=C/c2ccc(=O)n(Cc3ccccc3Cl)n2)cc1` returned a z-score of -0.116. Compound `Cc1nc(C)c(C(=O)N(c2ccc(C)c(C)c2)C(C(=O)NCc2ccco2)c2ccccc2)s1` (stereo unspecified) came in with a z-score of -1.4. For `COc1ccc(C(=O)c2cn[nH]c2-c2cc(Cl)ccc2O)cc1`, the z-score was -0.207. For `COc1cccc(C(=O)COC(=O)c2ccc(NC(=O)c3ccccc3)cc2)c1` the value was -0.304; for `COc1ccc(-c2c(C)n([O-])c(C)c(C)[n+]2=O)cc1OC`, -0.261; for `CSc1nccc(-c2cc(Cl)sc2Cl)n1`, -0.127. `COC(=O)CSc1n[nH]c(-c2cccnc2)n1` returned a z-score of 2.21.

Take `CCOC(=O)c1ccc(NC(=O)c2cccc(S(=O)(=O)N3c4ccccc4CC3C)c2)s1` (stereo unspecified): the z-score was found to be 0.51.

Compound `COC(=O)Cc1c(C)c2ccc(OCC(=O)N3CCOCC3)cc2oc1=O` came in with a z-score of -0.0395. For the compound `Cc1cc2ncn(CCOc3ccccc3)c2cc1C`, the z-score was -1.43. Regarding `O=c1[nH]c(=S)[nH]nc1Cc1ccccc1`, the z-score was determined as 0.282.

Turning to `Cc1cc(C)nc(N2CCCC(C(=O)Nc3cc(F)ccc3C)C2)n1` (stereo unspecified), the z-score is -0.253. The compound `Oc1ccc(-c2nc3ccccn3c2NCc2ccco2)cc1` displayed a z-score of -0.884. The result for `CCOc1nc(NC(=O)NC(=O)c2ccccc2)nc(-c2ccccc2)n1` reads -0.276; that for `COc1ccc(C(=O)Cn2c(=O)c(CCC(=O)O)nn3c4ccccc4nc23)cc1OC`, 0.0747; that for `CC1CCCCN1C(=O)CSc1nnc(CSc2ncccn2)n1C` (stereo unspecified), 0.773.

Compound `CCn1c(=O)n(CC(=O)Nc2cc(OC)c(OC)c(OC)c2)c(=O)c2ccccc21` had a z-score of -0.173.

As to `O=C(NCc1ccco1)c1cc2nc(-c3ccc4c(c3)OCO4)cc(C(F)(F)F)n2n1`, the z-score was -0.645. The compound `COc1ccc(-c2nc3ccccc3c(=O)n2NC(=S)N(C)C)cc1` showed a z-score of -0.0299. For the compound `COc1ccc(-n2c(SCC(N)=O)nc3nc4c(cc3c2=O)COC(C)(C)C4)cc1`, the z-score was 0.00439. Regarding `O=C1CCCC(=O)C1=C1SCCCS1`, the z-score was -0.18. `O=C(CNS(=O)(=O)c1ccc(Br)s1)NCC1COc2ccccc2O1` (stereo unspecified) registered a z-score of 0.0278. Take `C=CCNc1nc(Nc2ccc(OC)cc2OC)nc(OCC)n1`: the z-score was -0.877. The compound `Cc1ccccc1C(=O)Nc1nc2n(n1)C(c1ccccc1)CC(=O)N2` (stereo unspecified) came in with a z-score of -0.38. The result for `COc1ccc(NC(=O)/C=C/c2cccc(F)c2)cn1` reads -0.529; that for `O=c1c2cnn(-c3ccccc3)c2nc(-c2cccs2)n1-c1ccc(Br)cc1`, -0.945. For `Cc1ccc(-c2nc3ccccc3s2)cc1NC(=S)NC(=O)c1cccc2ccccc12` the value was 0.183. The compound `O=C(Cn1nnc(-c2ccc(CN3CCOCC3)cc2)n1)N1CCCc2ccccc21` returned a z-score of 1.82. The result for `COc1cc(NC(=O)CSc2nnc(-c3ccncc3)n2C2CCCCC2)ccc1NC(=O)c1ccco1` reads -0.847; that for `Cc1nnc(SCC(=O)N2CCc3ccccc3C2)s1`, 0.0143. For `Cc1ccc(O)c(C(=O)c2cnn(-c3ccccc3)c2)c1` the value was -0.29. For `O=C(Nc1ccn(Cc2ccccc2F)n1)c1ccc(COc2ccc(Cl)cc2Cl)o1`, the z-score is -0.281. For `CCCCCC(=O)Nc1cc2[nH]c(=O)cc(COC)c2cc1C` the value was -0.00991; for `CC(C)C(=O)N(c1ccc2oc(=O)sc2c1)S(=O)(=O)c1cccs1`, -0.944; for `O=C(NC1CCCc2ccccc21)C1CCN(S(=O)(=O)c2cnc[nH]2)CC1` (stereo unspecified), -0.509. For the compound `O=[N+]([O-])c1cccc(NC(=S)NCCc2ccccc2)c1`, the z-score was 1.98. `O=C(c1ccc(C(=O)N2CCOCC2)nc1)N1CCOCC1` came in with a z-score of -0.037. As for `CC(C)Nc1cc(C(F)(F)F)nc(-c2ccccn2)n1`, the z-score amounted to 0.00249.

With `CC1(C)NC(=O)N(CC(O)COc2cc3ccccc3cc2C(=O)N2CCCCC2)C1=O` (stereo unspecified), the z-score was -0.708. On to `CCOC(=O)Nc1ccc(S(=O)(=O)N(C)C(C)C)cc1`, for which the z-score is -0.113. With `CCNc1nc(NC(C)C)nc(OCC)n1`, the z-score was -0.186. The compound `COCCN(C(=O)Cn1nnc2ccccc21)C(C(=O)NC1CCCC1)c1cccc(OC)c1OC` (stereo unspecified) showed a z-score of 0.143. The result for `O=C(NCCc1csc(-c2ccccc2)n1)c1ccc(Br)o1` reads -0.551; that for `Clc1ccccc1-c1nn2c(-c3ccncc3)nnc2s1`, -0.211. In turn, `CCOc1cc(C(=O)Nc2cc(C)ccc2C)ccc1OCC(=O)N1CCCCC1` yielded a z-score of 0.207. For `Cc1ccc(C(=O)N/C(=C\c2ccco2)C(=O)NCCCn2ccnc2)cc1` the value was -0.09; for `CCOC(=O)c1ccc(NC(=O)CCn2nnc3ccccc32)cc1`, 0.109; for `Cc1cc(N2CCCCC2)nc2ccc(NC(=O)c3ccc(Br)o3)cc12`, -1.58. Compound `COc1ccc(NC(=S)NCCc2c[nH]c3ccccc23)cc1` registered a z-score of -0.346. For `CCOc1cccc(-c2cc(C(=O)N/N=C/c3ccc(OC)c(CN4CCOCC4)c3)c3ccccc3n2)c1` the value was -0.136.
